Here are results for 43 compounds from paper PMC4336329 (PLoS ONE, 2015).

Hit rate of the full screen: of about 310,000 compounds, about 14,000 (4.5%) showed an effect of 50% or more. Effects have a minus sign here. The list shows a part of the results.
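Note: peak tail current of the secondary pulse compared with the same well before compound.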

The target of this assay is human ether-à-go-go-related gene (hERG) potassium channel (human, UniProt Q12809). Nature of the assay: primary screen, population patch clamp on CHO cells stably expressing hERG.
Chain of human ether-à-go-go-related gene (hERG) potassium channel (Q12809 whole entry, looked up): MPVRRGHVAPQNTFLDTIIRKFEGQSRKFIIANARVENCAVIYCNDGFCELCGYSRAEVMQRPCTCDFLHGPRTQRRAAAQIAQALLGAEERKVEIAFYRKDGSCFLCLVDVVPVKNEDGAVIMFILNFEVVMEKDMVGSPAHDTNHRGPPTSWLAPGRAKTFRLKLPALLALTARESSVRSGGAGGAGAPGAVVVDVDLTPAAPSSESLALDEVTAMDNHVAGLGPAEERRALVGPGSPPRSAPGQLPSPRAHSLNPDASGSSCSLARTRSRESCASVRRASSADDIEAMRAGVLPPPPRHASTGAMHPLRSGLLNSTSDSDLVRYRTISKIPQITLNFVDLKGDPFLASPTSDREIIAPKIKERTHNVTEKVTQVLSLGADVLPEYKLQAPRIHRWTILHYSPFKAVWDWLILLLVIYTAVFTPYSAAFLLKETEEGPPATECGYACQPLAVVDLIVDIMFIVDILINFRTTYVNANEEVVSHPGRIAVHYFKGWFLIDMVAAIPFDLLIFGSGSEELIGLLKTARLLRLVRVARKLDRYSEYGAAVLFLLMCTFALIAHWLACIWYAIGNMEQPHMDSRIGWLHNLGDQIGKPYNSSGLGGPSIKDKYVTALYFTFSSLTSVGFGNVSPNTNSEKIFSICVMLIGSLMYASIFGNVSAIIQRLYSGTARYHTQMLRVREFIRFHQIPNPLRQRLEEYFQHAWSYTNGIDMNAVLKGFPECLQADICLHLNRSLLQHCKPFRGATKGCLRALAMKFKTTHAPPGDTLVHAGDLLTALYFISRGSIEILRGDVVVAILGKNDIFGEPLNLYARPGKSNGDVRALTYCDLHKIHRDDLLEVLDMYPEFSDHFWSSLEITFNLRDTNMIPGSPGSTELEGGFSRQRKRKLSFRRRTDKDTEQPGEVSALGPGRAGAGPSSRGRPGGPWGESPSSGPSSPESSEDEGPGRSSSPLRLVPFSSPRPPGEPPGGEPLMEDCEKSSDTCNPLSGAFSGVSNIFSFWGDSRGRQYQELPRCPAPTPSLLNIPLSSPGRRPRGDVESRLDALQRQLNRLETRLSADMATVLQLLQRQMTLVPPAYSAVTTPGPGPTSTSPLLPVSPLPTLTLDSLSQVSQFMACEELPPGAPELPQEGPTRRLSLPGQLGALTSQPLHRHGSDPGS
On to `O=C(CN1C(=O)C2CC=CCC2C1=O)NCC(=O)Nc1ccc(F)c(F)c1` (stereo not shown), for which the “hERG current change (%, negative = inhibition) at 10uM” value was found to be 3.28%. Then `COc1ccc(S(=O)(=O)N2CCCC(C(=O)NC3CCCCC3)C2)cc1` (stereo not shown), with 7.18%; and `CN1CCN(C2=Cc3cc(Cl)ccc3Sc3cc(F)ccc32)CC1.CS(=O)(=O)O`, with 0.951%; and `COCCn1nnnc1CN1CCN2CCCC2C1.Cl` (stereo not shown), with 3.16%. In the case of `COCCn1c(=NC(=O)/C=C/c2ccccc2)sc2cc(NC(C)=O)ccc21` it was -14.4%. In the case of `O=C(NCCOc1ccccc1)C(=O)NCC1CCCO1` (stereo not shown) it was 13.8%; in that of `Cc1nn(-c2ccccc2)c(C)c1/C=C/C(=O)OCC(=O)Nc1ncc(Cl)cc1Cl`, -16.9%. Turning to `COc1ccc(C)cc1NC(=O)c1cc(S(=O)(=O)N2CCOCC2)cn1C`, the “hERG current change (%, negative = inhibition) at 10uM” value is -3.05%. Take `CCOC(=O)C(Cc1ccccc1)NS(=O)(=O)c1ccc(NC(C)=O)cc1` (stereo not shown): the “hERG current change (%, negative = inhibition) at 10uM” value came out at 11.6%. Consider `Cc1ccc2nc(NCc3ccccc3)[nH]c2c1`, for which the “hERG current change (%, negative = inhibition) at 10uM” value is -36.8%. Then `CC(C(=O)N1CCC2(CC1)OCCO2)C1Sc2ccccc2NC1=O` (stereo not shown), with 6.9%. In the case of `COc1ccc(C[C@@H]2CN3C(=NC[C@@H]3Cc3ccc(O)cc3)N2C[C@H](C)NC(=O)CCC2CCCCC2)cc1` it was -80.6%; in that of `COc1ccc(Br)cc1/C=N/N1C(=O)CSC1=S`, 17.3%; in that of `CN(C)C(=O)c1nc2ccc(Cl)cn2c1CN1CCCC(OCc2ccccc2)C1` (stereo not shown), -36.2%. Then `Cc1occc1-c1n[nH]c(=S)n1C`, with 12.9%; and `Cc1ccccc1SCC(=O)N/N=C/c1ccc(F)cc1`, with 8.01%. As for `COc1cc(/C=N/Nc2nc3ccccc3[nH]2)cc(Br)c1OCC(=O)N(C)C`, the “hERG current change (%, negative = inhibition) at 10uM” value worked out at 2.18%.

`Cc1noc(C(C)C)c1C(=O)Nc1ccc(-c2nnc3n2CCCCC3)cc1`: the “hERG current change (%, negative = inhibition) at 10uM” value is -4.21%. `C=CCn1c(CNc2ccccc2)nnc1SCC(=O)N/N=C/c1ccccc1O`: the “hERG current change (%, negative = inhibition) at 10uM” value is -16.5%. Then `CC(C)(C)[C@H]1C=C(C(=O)NCc2ccccc2)O[C@@H](OCCCCO)C1`, with 0.64%; and `CCn1c(C)nc2cc(C(=O)N/N=C/c3ccccc3C)ccc21`, with -12.8%; and `Clc1ccccc1CSc1nnc(/C=C/c2ccccc2)o1`, with 11.5%.

In the case of `Cc1ccc(N(Cc2cc3ccccc3[nH]c2=O)S(=O)(=O)c2ccccc2)cc1`, the “hERG current change (%, negative = inhibition) at 10uM” value is listed as -2.77%. Then `OCCC1CN(Cc2ccccc2OC2CCCC2)CCN1Cc1ccsc1` (stereo not shown), with -68.7%; and `Cc1ccc(NC(=O)COC(=O)CNC(=O)c2ccc(Br)cc2)c(C)c1`, with -14.9%. In the case of `CN(C)/C=C/C(=O)c1ccc(Cl)s1`, the “hERG current change (%, negative = inhibition) at 10uM” value is -9.03%. In the case of `O=C(CSc1nnc2ccccn12)c1ccc(OC(F)F)cc1OC(F)F` it was -35.1%; in that of `O=C1CCC(=O)N1c1ccccc1-c1ccccc1`, 13.4%. As for `Cc1nc(-c2ccc(NC(=O)C(C)(C)C)cc2)c(-c2ccccc2)o1`, the “hERG current change (%, negative = inhibition) at 10uM” value turned out to be 20.6%.

In the case of `COC(=O)CN1C(=O)[C@H]2[C@@H](c3ccc(C)o3)N3C(=O)CN(Cc4ccccc4)C(=O)[C@@]3(C)[C@H]2C1=O`, the “hERG current change (%, negative = inhibition) at 10uM” value was 5.37%. In the case of `COc1cc(C(=O)NCC(c2cccs2)N2CCOCC2)c([N+](=O)[O-])cc1OC` (stereo not shown) it was 8.17%; in that of `CN(Cc1ccccc1)C(=O)COC(=O)c1cc(S(=O)(=O)N(C)C)ccc1N1CCCC1`, 1.93%. Then `CC1CN(C(=O)N2CCCCC2)CCN1C(=O)N1CCCCC1` (stereo not shown), with 16.9%.

As for `Cc1ccc(N(CC(=O)Nc2cc(Cl)ccc2Oc2ccccc2)S(C)(=O)=O)c(C)c1`, the “hERG current change (%, negative = inhibition) at 10uM” value was 7.88%. Then `O=C(COc1cccc(NC(=O)c2ccco2)c1)c1ccccc1`, with -19.8%. Consider `CC(=O)C1=C(O)CC(C)(C)CC1=NCCc1nc2ccccc2[nH]1`, for which the “hERG current change (%, negative = inhibition) at 10uM” value stood at 7.96%.

For the compound `C#CCOCCOCCOCCNc1nc(N2CCOCC2)nc(N2CCN(C(=O)[C@H](Cc3cc4ccccc4[nH]3)n3cc([C@@H](N)Cc4ccc(O)cc4)nn3)CC2)n1.Cl`, the “hERG current change (%, negative = inhibition) at 10uM” value is reported as 6.43%. Then `COc1ccc(/C=N/NC(=O)c2nnn(-c3nonc3N)c2-c2cccc(OC)c2)cc1`, with -43.8%. Then `CCC(C)(C)n1nnnc1C(c1ccc(OC)c(OC)c1)N1CCN(c2ccc(OC)cc2)CC1.Cl` (stereo not shown), with -15.9%; and `NC(=O)CC(NC(=O)Cc1cccc2ccccc12)c1ccc(NC2CCCCC2)c([N+](=O)[O-])c1` (stereo not shown), with 1.98%; and `CCN(CC(=O)NC1CCS(=O)(=O)C1)S(=O)(=O)c1cc(C)ccc1C` (stereo not shown), with 10.2%. In the case of `Cc1ccc(S(=O)(=O)/N=C2/NC(=O)/C(=C/c3cccnc3)S2)cc1` it was -10.4%; in that of `COc1cccc(-n2c([S-])c(C(=O)Nc3ccc(C(F)(F)F)cc3)[n+]3ccccc23)c1`, 25.9%.
